# Measurements from the supplement of paper PMC8728848.
# Some of the results follow.
# Tests used:
# Assay in all cases: glycan array binding signal (z-score within array); higher = stronger binding
# Conditions in all cases: glycan notation: IUPAC condensed, linker removed
# [1] = biological target: Neu5Ac(a2-3)Gal(b1-3)[GlcNAc(b1-6)]GalNAc
# Outline: (§1)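 Glycan array data came from 3228 arrays in the Consortium for Functional Glycomics database, and only arrays with an available protein sequence were kept. Glycan names were put into IUPAC-condensed notation, and columns mapping to the same glycan were averaged. The binding signal is a within-array Z-score, averaged across arrays of one protein sequence run at different concentrations or buffers and across linkers. A negative Z-score can be read as non-binding.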
# [2] = biological target: Neu5Ac(a2-3)Gal(b1-3)[Neu5Ac(a2-6)]GalNAc
# Outline: as §1
# [3] = biological target: Neu5Ac(a2-3)Gal(b1-3)[Neu5Ac(a2-6)]GlcNAc(b1-3)[Fuc(a1-3)[Gal(b1-4)]GlcNAc(b1-6)]Gal(b1-4)Glc
# Outline: as §1
# [4] = biological target: Neu5Ac(a2-3)Gal(b1-3)]Neu5Ac(a2-3)Gal(b1-4)]GlcNAc
# Outline: as §1
# Neu5Ac(a2-3)Gal(b1-4)Glc = biological target: Neu5Ac(a2-3)Gal(b1-4)Glc
# Outline: as §1
# [5] = biological target: Neu5Ac(a2-3)Gal(b1-4)GlcNAc
# Outline: as §1
# [6] = biological target: Neu5Ac(a2-3)Gal(b1-4)GlcNAc(b1-2)Man
# Outline: as §1
# [7] = biological target: Neu5Ac(a2-3)Gal(b1-4)GlcNAc(b1-2)Man(a1-3)[GlcNAc(b1-4)][Neu5Ac(a2-3)Gal(b1-4)GlcNAc(b1-2)Man(a1-6)]Man(b1-4)GlcNAc(b1-4)GlcNAc
# Outline: as §1
# [8] = biological target: Neu5Ac(a2-3)Gal(b1-4)GlcNAc(b1-2)Man(a1-3)[Neu5Ac(a2-3)Gal(b1-4)GlcNAc(b1-2)Man(a1-6)]Man(b1-4)GlcNAc(b1-4)GlcNAc
# Outline: as §1
# [9] = biological target: Neu5Ac(a2-3)Gal(b1-4)GlcNAc(b1-2)Man(a1-3)[Neu5Ac(a2-3)Gal(b1-4)GlcNAc(b1-2)Man(a1-6)]Man(b1-4)GlcNAc(b1-4)[Fuc(a1-6)]GlcNAc
# Outline: as §1
# [10] = biological target: Neu5Ac(a2-3)Gal(b1-4)GlcNAc(b1-2)Man(a1-3)[Neu5Ac(a2-6)Gal(b1-4)GlcNAc(b1-2)Man(a1-6)]Man(b1-4)GlcNAc(b1-4)GlcNAc
# Outline: as §1
# [11] = biological target: Neu5Ac(a2-3)Gal(b1-4)GlcNAc(b1-2)[Neu5Ac(a2-3)Gal(b1-4)GlcNAc(b1-4)]Man(a1-3)[GlcNAc(b1-4)][Neu5Ac(a2-3)Gal(b1-4)GlcNAc(b1-2)[Neu5Ac(a2-3)Gal(b1-4)GlcNAc(b1-6)]Man(a1-6)]Man(b1-4)GlcNAc(b1-4)GlcNAc
# Outline: as §1
# [12] = biological target: Neu5Ac(a2-3)Gal(b1-4)GlcNAc(b1-2)[Neu5Ac(a2-3)Gal(b1-4)GlcNAc(b1-4)]Man(a1-3)[GlcNAc(b1-4)][Neu5Ac(a2-3)Gal(b1-4)GlcNAc(b1-4)Man(a1-6)]Man(b1-4)GlcNAc(b1-4)GlcNAc
# Outline: as §1
# [13] = biological target: Neu5Ac(a2-3)Gal(b1-4)GlcNAc(b1-2)[Neu5Ac(a2-3)Gal(b1-4)GlcNAc(b1-6)]Man(a1-6)[Neu5Ac(a2-3)Gal(b1-4)GlcNAc(b1-2)Man(a1-3)][GlcNAc(b1-4)]Man(b1-4)GlcNAc(b1-4)GlcNAc
# Outline: as §1
# [14] = biological target: Neu5Ac(a2-3)Gal(b1-4)GlcNAc(b1-3)Gal
# Outline: as §1
# [15] = biological target: Neu5Ac(a2-3)Gal(b1-4)GlcNAc(b1-3)Gal(b1-3)GlcNAc
# Outline: as §1
# [16] = biological target: Neu5Ac(a2-3)Gal(b1-4)GlcNAc(b1-3)Gal(b1-4)GlcNAc
# Outline: as §1
# [17] = biological target: Neu5Ac(a2-3)Gal(b1-4)GlcNAc(b1-3)Gal(b1-4)GlcNAc(b1-2)Man(a1-3)[Neu5Ac(a2-3)Gal(b1-4)GlcNAc(b1-3)Gal(b1-4)GlcNAc(b1-2)Man(a1-6)]Man(b1-4)GlcNAc(b1-4)GlcNAc
# Outline: as §1
# [18] = biological target: Neu5Ac(a2-3)Gal(b1-4)GlcNAc(b1-3)Gal(b1-4)GlcNAc(b1-3)Gal(b1-4)GlcNAc
# Outline: as §1
# [19] = biological target: Neu5Ac(a2-3)Gal(b1-4)GlcNAc(b1-3)Gal(b1-4)GlcNAc(b1-3)Gal(b1-4)GlcNAc(b1-2)Man(a1-3)[Neu5Ac(a2-3)Gal(b1-4)GlcNAc(b1-3)Gal(b1-4)GlcNAc(b1-3)Gal(b1-4)GlcNAc(b1-2)Man(a1-6)]GalNAc
# Outline: as §1
# [20] = biological target: Neu5Ac(a2-3)Gal(b1-4)GlcNAc(b1-3)Gal(b1-4)GlcNAc(b1-3)GalNAc
# Outline: as §1
# [21] = biological target: Neu5Ac(a2-3)Gal(b1-4)GlcNAc(b1-3)Gal(b1-4)GlcNAc(b1-3)[Neu5Ac(a2-3)Gal(b1-4)GlcNAc(b1-3)Gal(b1-4)GlcNAc(b1-6)]GalNAc
# Outline: as §1
# [22] = biological target: Neu5Ac(a2-3)Gal(b1-4)GlcNAc(b1-3)Gal(b1-4)GlcNAc(b1-6)[Gal(b1-3)]GalNAc
# Outline: as §1
binder,measurement,setting,value
Banana lectin (Musa acuminata) (protein) MNGAIKVGAWGGNGGSAFDMGPAYRIISVKIFSGDVVDGVDVTFTYYGKTETRHYGGSGGTPHEIVLQEGEYLVGMAGEVANYHGAVVLGKLGFSTNKKAYGPFGNTGGTPFSLPIAAGKISGFFGRGGKFLDAIGVYLEPLEHHHHHH,glycan array binding signal (z-score),[1],-0.214
same,glycan array binding signal (z-score),[2],-0.235
same,glycan array binding signal (z-score),[3],-0.188
same,glycan array binding signal (z-score),[4],-0.223
same,glycan array binding signal (z-score),Neu5Ac(a2-3)Gal(b1-4)Glc,-0.193
same,glycan array binding signal (z-score),[5],-0.197
same,glycan array binding signal (z-score),[6],-0.182
same,glycan array binding signal (z-score),[7],-0.197
same,glycan array binding signal (z-score),[8],-0.144
same,glycan array binding signal (z-score),[9],-0.603
same,glycan array binding signal (z-score),[10],-0.163
same,glycan array binding signal (z-score),[11],-0.216
same,glycan array binding signal (z-score),[12],-0.225
same,glycan array binding signal (z-score),[13],-0.234
same,glycan array binding signal (z-score),[14],-0.215
same,glycan array binding signal (z-score),[15],-0.247
same,glycan array binding signal (z-score),[16],-0.228
same,glycan array binding signal (z-score),[17],-0.167
same,glycan array binding signal (z-score),[18],-0.198
same,glycan array binding signal (z-score),[19],-0.09
same,glycan array binding signal (z-score),[20],-0.217
same,glycan array binding signal (z-score),[21],-0.196
same,glycan array binding signal (z-score),[22],-0.208
